Results on 59 molecules are retold here after paper PMC4336329 (PLoS ONE, 2015).

Hit rate of the full screen: of about 310,000 compounds, about 2,200 (0.71%) showed an effect of 50% or more. The effect is printed as a negative number. This is one part of the list. Where a SMILES comes first, the peptide text is derived from it. [ ]: non-standard residue; d: D form. ξ: configuration not given here. ξM = CSCCC(N)C(=O)O

The target in the experiment is human ether-à-go-go-related gene (hERG) potassium channel (human, UniProt Q12809). Briefly: primary screen, population patch clamp on CHO cells stably expressing hERG.
Chain of human ether-à-go-go-related gene (hERG) potassium channel (Q12809 whole entry, looked up): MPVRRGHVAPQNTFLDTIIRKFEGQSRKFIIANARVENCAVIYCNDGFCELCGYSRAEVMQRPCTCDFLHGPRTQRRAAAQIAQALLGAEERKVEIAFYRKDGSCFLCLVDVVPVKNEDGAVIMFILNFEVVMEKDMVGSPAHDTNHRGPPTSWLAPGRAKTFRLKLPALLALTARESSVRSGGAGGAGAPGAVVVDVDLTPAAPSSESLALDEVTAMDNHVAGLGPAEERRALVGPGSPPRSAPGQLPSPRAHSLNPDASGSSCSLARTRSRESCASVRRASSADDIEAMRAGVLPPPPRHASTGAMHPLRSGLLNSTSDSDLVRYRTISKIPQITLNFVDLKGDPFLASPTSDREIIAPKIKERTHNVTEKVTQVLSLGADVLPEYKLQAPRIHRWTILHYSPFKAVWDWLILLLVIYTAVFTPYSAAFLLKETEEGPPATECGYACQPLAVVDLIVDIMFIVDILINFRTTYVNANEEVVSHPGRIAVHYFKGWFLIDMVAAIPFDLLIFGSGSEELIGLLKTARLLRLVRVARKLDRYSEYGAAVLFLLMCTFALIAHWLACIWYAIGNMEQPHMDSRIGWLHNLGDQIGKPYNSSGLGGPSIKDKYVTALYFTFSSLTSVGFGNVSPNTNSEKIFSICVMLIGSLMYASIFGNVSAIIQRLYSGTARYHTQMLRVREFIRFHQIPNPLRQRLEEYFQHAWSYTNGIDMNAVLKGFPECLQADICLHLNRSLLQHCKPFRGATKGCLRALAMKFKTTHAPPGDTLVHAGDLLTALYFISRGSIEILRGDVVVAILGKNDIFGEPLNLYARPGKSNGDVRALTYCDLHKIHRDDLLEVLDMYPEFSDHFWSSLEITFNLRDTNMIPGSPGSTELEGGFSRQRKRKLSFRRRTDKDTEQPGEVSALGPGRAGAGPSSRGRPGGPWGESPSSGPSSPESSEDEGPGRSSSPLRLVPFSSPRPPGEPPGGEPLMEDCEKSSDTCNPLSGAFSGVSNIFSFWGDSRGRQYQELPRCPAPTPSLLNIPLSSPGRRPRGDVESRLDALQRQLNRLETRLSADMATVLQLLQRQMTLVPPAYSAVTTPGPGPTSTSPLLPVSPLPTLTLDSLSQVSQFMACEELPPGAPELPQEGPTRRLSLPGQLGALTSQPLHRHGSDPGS
For the molecule `O=C(CN1CCC(NC(=O)c2ccc(Br)cc2)CC1)NCc1cccs1`, the “hERG current change (%, negative = inhibition) at 1uM” value came out at 11%.

For `CC(=O)c1ccc(Oc2ccc(C(C)=O)cc2)cc1`, the “hERG current change (%, negative = inhibition) at 1uM” value came to 13.8%.

`CCCCCCCCCCCCCCCCn1cc[n+](C)c1.[Br-]`: the “hERG current change (%, negative = inhibition) at 1uM” value is given as 13.3%.

On to `CCOC(=O)c1c(CC(C)C)csc1NC(C)=O`, for which the “hERG current change (%, negative = inhibition) at 1uM” value was found to be 3.94%.

Turning to `COC(=O)c1[nH]c2ccccc2c1NC(=O)CCN1CCSCC1`, the “hERG current change (%, negative = inhibition) at 1uM” value turned out to be 12.6%.

Regarding `Cc1cccc(NC(=S)/N=C(\N)Nc2nc(C)c3cc(C)ccc3n2)c1`, the “hERG current change (%, negative = inhibition) at 1uM” value worked out at 10.5%.

As for `CN(C)CCCN(C(=O)c1ccc2c(c1)CCCC2)c1nc2ccc(F)cc2s1.Cl`, the “hERG current change (%, negative = inhibition) at 1uM” value is -12.5%.

Consider `COc1ccc(CN2CCN(C(C)C)C(CCO)C2)cc1Cn1cccn1` (centres unmarked), for which the “hERG current change (%, negative = inhibition) at 1uM” value is 12%.

`CC(C)(C)OC(=O)NCCCC[C@H](NC(=O)c1[nH]cnc1C(=O)Nc1ccccc1)C(=O)OC(C)(C)C`: the “hERG current change (%, negative = inhibition) at 1uM” value came to 20.8%.

Take `Cc1c(CCC(=O)NCCCC(=O)O)c(=O)oc2cc3oc4c(c3cc12)CCCC4`: the “hERG current change (%, negative = inhibition) at 1uM” value was determined as 16.4%.

With `O=S(=O)(c1ccc2c(c1)OCCO2)N1CCC(n2nnc3cc(C(F)(F)F)ccc32)CC1`, the “hERG current change (%, negative = inhibition) at 1uM” value is given as 1.12%.

Regarding `CN(C)CCN(C(=O)c1ccc(N2C(=O)CCC2=O)cc1)c1nc2cc3c(cc2s1)OCO3.Cl`, the “hERG current change (%, negative = inhibition) at 1uM” value is 4.9%.

As for `CCn1cc(C(=O)OCC(=O)Nc2ccc(C(C)C)cc2)c(=O)c2ccc(C)nc21`, the “hERG current change (%, negative = inhibition) at 1uM” value was 5.91%.

Regarding `Cc1ccc(-c2nnnn2-c2ccc(C)cc2)cc1`, the “hERG current change (%, negative = inhibition) at 1uM” value is given as 8.63%.

For `O=C(O)c1cccc(Nc2ncnc3ccc(Br)cc23)c1`, the “hERG current change (%, negative = inhibition) at 1uM” value stood at 11%.

As for `Cc1ccccc1NC(=O)Nc1cc(-c2ccccc2)nn1C`, the “hERG current change (%, negative = inhibition) at 1uM” value was determined as 3.01%.

In the case of `Nc1nonc1N1CCCCC1`, the “hERG current change (%, negative = inhibition) at 1uM” value turned out to be 13.8%.

Take `CCN1C(=NCCOC)N[C@@H](c2cccc(F)c2)C(C(=O)OC)=C1C`: the “hERG current change (%, negative = inhibition) at 1uM” value was -0.149%.

On to `COC(=O)c1ccc(CN2CCCC(C(=O)Nc3ccc(-c4ccn[nH]4)cc3)C2)cc1` (centres unmarked), for which the “hERG current change (%, negative = inhibition) at 1uM” value worked out at 16%.

`CCOC(=O)CSc1nc(C)c2ccc(C)cc2n1`: the “hERG current change (%, negative = inhibition) at 1uM” value was determined as 11.3%.

On to `Cc1nc2cc(NC(=O)NC3CC3)ccc2n1C`, for which the “hERG current change (%, negative = inhibition) at 1uM” value amounted to 14.8%.

As for `COC(=O)CNC(=O)C(CCSC)NC(C)=O` (centres unmarked) (Ac-[ξM]-Gly-OMe), the “hERG current change (%, negative = inhibition) at 1uM” value came to 21.8%.

As to `N#Cc1cc2c(nc1SCc1cccnc1)CCCC2`, the “hERG current change (%, negative = inhibition) at 1uM” value is -5.64%.

In the case of `COc1ccccc1OCC(=O)N1CCN(Cc2ccc3c(c2)OCO3)CC1`, the “hERG current change (%, negative = inhibition) at 1uM” value is listed as 1.76%.

As for `Fc1cccc(F)c1/C=N/N1CCOCC1`, the “hERG current change (%, negative = inhibition) at 1uM” value came out at 10.6%.

For `CCOc1cc(/C=N/Nc2nc(-c3cccs3)c(NC(C)=O)s2)ccc1O`, the “hERG current change (%, negative = inhibition) at 1uM” value is listed as 8.23%.

In the case of `O=C(Cn1cc([N+](=O)[O-])ccc1=O)Nc1ccc2c(c1)OCO2`, the “hERG current change (%, negative = inhibition) at 1uM” value was determined as 6.39%.

With `O=C(CNS(=O)(=O)c1ccccc1)Nc1ccccc1Br`, the “hERG current change (%, negative = inhibition) at 1uM” value is -12.9%.

Consider `Cc1ccc(CN2CCN(/N=C/c3sccc3C)CC2)c(C)c1`, for which the “hERG current change (%, negative = inhibition) at 1uM” value is 7.02%.

Turning to `Cc1ccccc1N1CC2=C(C1=O)C(c1ccccc1)NC(=O)N2C` (centres unmarked), the “hERG current change (%, negative = inhibition) at 1uM” value stood at 10.4%.

Take `Cc1cc(N2CCN(C)CC2)n2nc(-c3ccc(Cl)cc3)nc2n1`: the “hERG current change (%, negative = inhibition) at 1uM” value is -67.2%.

As to `COc1nc(-c2ccc3c(c2)OCO3)n(-c2ccc(NC(=O)CSc3ccccc3)cc2)n1`, the “hERG current change (%, negative = inhibition) at 1uM” value stood at 1.13%.

As to `CCc1ccc(C(=O)NNC(=O)c2cccc(N3C(=O)CCC3=O)c2)cc1`, the “hERG current change (%, negative = inhibition) at 1uM” value stood at 16.7%.

`Cc1ccc(C)c(NC(=O)COC(=O)c2nc(Cl)ccc2Cl)c1`: the “hERG current change (%, negative = inhibition) at 1uM” value was determined as 4.58%.

For `CCc1cccc(NC(=O)c2cccc3c2C(=O)N(C2CCCCC2)C3)c1`, the “hERG current change (%, negative = inhibition) at 1uM” value is on record as 17.5%.

In the case of `Cc1cc(Cl)ccc1OC(C)C(=O)NCCc1ccc2c(c1)OCCO2` (centres unmarked), the “hERG current change (%, negative = inhibition) at 1uM” value is -1.35%.

For the molecule `O=C(N/N=C/c1ccc(Cl)cc1Cl)C(=O)NC1CC1`, the “hERG current change (%, negative = inhibition) at 1uM” value worked out at 12.2%.

Turning to `COc1ccc(/C=C2\SC(=N)N(c3nccs3)C2=O)cc1OC`, the “hERG current change (%, negative = inhibition) at 1uM” value was 10.5%.

In the case of `C[C@@H](CO)NC(=O)c1ccc2c3n(nc2c1)-c1ccc(Cl)cc1CO3`, the “hERG current change (%, negative = inhibition) at 1uM” value was found to be 9.31%.

Consider `O=C(Nc1nc(-c2ccc3c(c2)OCCO3)cs1)C1CCCC1`, for which the “hERG current change (%, negative = inhibition) at 1uM” value is given as 8.23%.

For `O=C(NCCN1CCOCC1)c1cccc(Br)c1`, the “hERG current change (%, negative = inhibition) at 1uM” value was found to be 8.4%.

Consider `c1ccc2c(c1)[nH]c1c3ccccc3sc21`, for which the “hERG current change (%, negative = inhibition) at 1uM” value turned out to be 15.7%.

With `O=C(COC(=O)c1ccc[nH]c1=O)Nc1ccc(S(=O)(=O)N2CCCC2)cc1`, the “hERG current change (%, negative = inhibition) at 1uM” value is recorded as 9.71%.

For `CC(C)CNCC(=O)N1c2ccccc2Sc2ccccc21.O=C(O)C(=O)O`, the “hERG current change (%, negative = inhibition) at 1uM” value was found to be 9.68%.

`COc1cccc2cc(C(=O)OC3CCN(C)CC3)c(=O)oc12`: the “hERG current change (%, negative = inhibition) at 1uM” value came out at 5.74%.

In the case of `Cc1cccc(CCNC(=O)CN(C)S(=O)(=O)c2cnc[nH]2)c1`, the “hERG current change (%, negative = inhibition) at 1uM” value was 13%.

Turning to `O=C(NCCN1CCOCC1)c1cc(Cl)ccc1Cl`, the “hERG current change (%, negative = inhibition) at 1uM” value was found to be 7.78%.

For `CCOc1ccccc1-n1c(O)c(C=NCc2ccc3c(c2)OCO3)c(=O)[nH]c1=O`, the “hERG current change (%, negative = inhibition) at 1uM” value amounted to 5.63%.

On to `CCOc1ccc(NC(=O)CSCc2cnn(-c3ccccc3)c2-n2cccc2)cc1`, for which the “hERG current change (%, negative = inhibition) at 1uM” value is reported as -1.74%.

With `O=C(CCn1cnnn1)Nc1ccc(Cl)c(Cl)c1`, the “hERG current change (%, negative = inhibition) at 1uM” value stood at 16.5%.

`CCCNS(=O)(=O)c1ccc(CCC(=O)N2CCOCC2)cc1`: the “hERG current change (%, negative = inhibition) at 1uM” value was 15.1%.

Regarding `COCCn1c(SCC(=O)c2c(N)n(C3CC3)c(=O)[nH]c2=O)nc2ccccc21`, the “hERG current change (%, negative = inhibition) at 1uM” value is listed as 15.5%.

Regarding `O=C(c1ccco1)N1CCCC(c2nc3c(nnn3Cc3ccccc3)c(=O)[nH]2)C1` (centres unmarked), the “hERG current change (%, negative = inhibition) at 1uM” value amounted to 17.9%.

In the case of `CCCC(C)C(=O)NC1CCSC1=O` (centres unmarked), the “hERG current change (%, negative = inhibition) at 1uM” value is recorded as -0.703%.

For `CNC(=O)N1c2ccccc2NC(=O)CC1C` (centres unmarked), the “hERG current change (%, negative = inhibition) at 1uM” value is listed as 7.74%.

For the molecule `COc1ccc(-n2c(-c3cccc(OC)c3)nc(=S)c3c2CCCC3)cc1`, the “hERG current change (%, negative = inhibition) at 1uM” value is on record as 11.3%.

For `O=C(/C=C/c1ccc(OCCCF)cc1)NCc1cccc(Cl)c1`, the “hERG current change (%, negative = inhibition) at 1uM” value is reported as 3.21%.

As to `COc1ccc(NC(=O)C(=O)NCC(c2ccco2)N2CCc3ccccc3C2)cc1` (centres unmarked), the “hERG current change (%, negative = inhibition) at 1uM” value is reported as -0.912%.

Regarding `O=S(=O)(NC1CCCC1)OCC(Cl)(Cl)Cl`, the “hERG current change (%, negative = inhibition) at 1uM” value was 5.14%.
